In article PMC4336329 (PLoS ONE, 2015):
The whole screen tested about 310,000 compounds, of which about 14,000 (4.5%) showed an effect of 50% or more. Effects have a minus sign here. The list shows a part of the results.

molecular target: human ether-à-go-go-related gene (hERG) potassium channel (human, UniProt Q12809); assay: primary screen, population patch clamp on CHO cells stably expressing hERG
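Further: peak tail current of the secondary pulse compared with the same well before compound.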

human ether-à-go-go-related gene (hERG) potassium channel, sequence (Q12809 whole entry, looked up): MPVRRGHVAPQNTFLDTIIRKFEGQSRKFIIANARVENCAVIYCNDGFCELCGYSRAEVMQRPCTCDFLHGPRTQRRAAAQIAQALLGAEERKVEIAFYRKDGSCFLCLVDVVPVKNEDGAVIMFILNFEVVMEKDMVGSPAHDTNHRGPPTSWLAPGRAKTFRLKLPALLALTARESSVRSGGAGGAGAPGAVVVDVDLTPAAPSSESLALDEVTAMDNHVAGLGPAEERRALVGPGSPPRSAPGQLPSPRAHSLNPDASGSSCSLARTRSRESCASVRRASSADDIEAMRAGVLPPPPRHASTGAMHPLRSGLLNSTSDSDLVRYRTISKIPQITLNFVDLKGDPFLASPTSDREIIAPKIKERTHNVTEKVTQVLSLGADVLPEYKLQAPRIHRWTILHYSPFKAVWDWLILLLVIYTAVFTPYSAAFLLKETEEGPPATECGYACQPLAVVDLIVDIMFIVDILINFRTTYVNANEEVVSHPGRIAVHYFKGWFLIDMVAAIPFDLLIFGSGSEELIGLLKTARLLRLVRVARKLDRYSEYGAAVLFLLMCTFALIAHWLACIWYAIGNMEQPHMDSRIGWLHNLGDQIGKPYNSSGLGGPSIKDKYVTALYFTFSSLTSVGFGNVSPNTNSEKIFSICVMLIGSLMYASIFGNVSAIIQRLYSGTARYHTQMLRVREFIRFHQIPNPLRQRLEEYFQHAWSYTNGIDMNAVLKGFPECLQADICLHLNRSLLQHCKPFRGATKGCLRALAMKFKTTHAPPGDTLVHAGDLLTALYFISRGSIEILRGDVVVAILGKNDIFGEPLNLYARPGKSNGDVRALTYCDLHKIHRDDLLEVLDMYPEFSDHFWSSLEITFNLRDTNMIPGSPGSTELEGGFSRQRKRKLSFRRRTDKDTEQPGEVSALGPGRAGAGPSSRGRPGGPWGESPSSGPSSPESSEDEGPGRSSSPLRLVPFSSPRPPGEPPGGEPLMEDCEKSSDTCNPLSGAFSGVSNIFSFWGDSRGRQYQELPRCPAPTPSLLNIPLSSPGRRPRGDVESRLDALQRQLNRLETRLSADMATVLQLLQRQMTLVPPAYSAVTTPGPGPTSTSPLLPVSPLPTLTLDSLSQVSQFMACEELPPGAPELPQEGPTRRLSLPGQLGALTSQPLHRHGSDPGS

SMILES	hERG current change (%, negative = inhibition) at 10uM [%]
N#CC1=C(N)N(c2ncn[nH]2)C2=C(C(=O)CCC2)C1c1ccc(F)cc1 (stereo not shown)	12.3
COc1ccccc1NC(=O)N1CCCC1C(=O)NCc1ccccc1F (stereo not shown)	19.4
Cc1ccc(S(=O)(=O)N/N=C\c2cc3c(cc2Br)OCO3)cc1	1.64
COc1cc2c(C(=O)N3CCN(c4ccccc4C)CC3)c(C)oc2cc1Br	7.54
O=S(=O)(Nc1nc2ccccc2nc1Nc1ccc2c(c1)OCO2)c1ccc(F)cc1	24.5
CCOC(=O)c1ccc(NC2=CC(=O)C(=O)c3ccccc32)cc1	7.2
CCCS(=O)(=O)N1CCC(C(=O)NC2CCCCC2C)CC1 (stereo not shown)	18.8
O=c1c2[nH]c3cccc(Cl)c3c2ncn1Cc1ccco1	27.5
CCOc1ccc(NC(=O)CCSc2ccc(C)cc2)cc1	8.63
O=C(COc1ccc(N2CC(C(=O)O)CC2=O)cc1)Nc1cccc(C(F)(F)F)c1 (stereo not shown)	21.2
NC(=O)CC[C@H](NC(=O)OCc1ccccc1)C(=O)OCc1ccc(Cl)cc1	3.73
O=C(N/N=C1\CCc2ccccc21)c1ccccc1O	-3.21
CC(=O)Nc1ccc(/C(C)=N/NC(=O)c2ccc(COc3ccccc3Cl)o2)cc1	3.86
COC(=O)C1=[N+]([O-])OC(C(=O)OC)C1c1c[nH]c2ccccc12 (stereo not shown)	-6.22
CCC(C)NC(=O)c1c(C)cc(=O)oc1C (stereo not shown)	8.31
COC(=O)c1ccc([C@H]2C=C(C(=O)O)O[C@@H](OCc3ccc(CO)cc3)C2)cc1	13.6
CC(C)Cc1[nH]c(=O)c(C#N)c2c1CCC2	8.97
O=C(O)[C@H](Cc1c[nH]c2ccccc12)Nc1ncccc1[N+](=O)[O-]	0.648
CCC(C)(C)C1CCC(=NNc2nc3ccccc3[nH]2)CC1 (stereo not shown)	2.49
CCCOc1ccc(S(=O)(=O)N2CCOCC2)cc1[N+](=O)[O-]	-57.8
Cc1nccn1C[C@@H]1CCc2c(c3ccccc3n2C)C1=O	-31.5
Cc1cc(-n2nc(C)cc2C)n2nc(C)c(-c3ccccc3)c2n1	13.6

SMILES	hERG current change (%, negative = inhibition) at 10uM [%]
CC(C)CC(=O)NC(c1ccccc1Cl)c1c(O)ccc2ccccc12 (stereo not shown)	-15.5
CCOc1ccc(C(=O)c2nc3c(n2O)CCCCC3)cc1	13
COc1ccccc1N/C(N)=N/c1nc(CSc2ccc(C)cc2)cc(=O)[nH]1	15.8
O=C(Nc1cccc(-c2ccc(N3CCCCC3)nn2)c1)C(F)(F)F	-8.5
Cc1ccc(N(C(C)C(=O)N2CCN(Cc3ccccc3)CC2)S(C)(=O)=O)cc1 (stereo not shown)	2.78
CCOc1ccc(NC(=O)CCN2CCN(S(=O)(=O)c3ccc(F)cc3)CC2)cc1	-16.5
COC(=O)C1=C(Nc2cc(Cl)cc(Cl)c2)CSC1	11.9
CCCC(=O)N=c1sc2cccc(F)c2n1C	-13.8
Cc1ccc(SCCNC(=O)C(C)C)cc1	5.58
CC(Sc1nnc(N)s1)C(=O)NC1CCCCC1C (stereo not shown)	-5.59
O=C(O)CCS(=O)(=O)c1cccc2cccnc12	11.7
CCNC(=O)c1ccc(-n2nc(C)cc2-c2ccccc2)cc1	2.65
CCOc1cccc(C(=O)Nc2cccc(-c3nnc(-c4ccc(C)cc4)o3)c2)c1	19.5
CCOCCc1nnc(NC(=O)CN2C(=O)c3ccccc3C2=O)s1	-14.5
O=C(COC(=O)CCc1ccc(S(=O)(=O)N2CCOCC2)cc1)NC1CCCC1	-4.09
Cc1nn(C)cc1C(C)NC(=O)c1cc(COc2ccc(F)c(F)c2)on1 (stereo not shown)	-6.16
CC(=O)c1cn(Cc2ccccc2C#N)c2ccccc12	25.3
Cc1ccc(/C=N/n2nnnc2N)o1	-7.92
Cc1ccccc1NC(=O)N1c2ccccc2CC1C (stereo not shown)	22.1
Cc1ccc(C2=CC(C)(c3ccc(C)cc3)Nc3nc(C(F)(F)F)nn32)cc1 (stereo not shown)	11.5
COc1ccc(/C=N/NC(=O)CC(=O)NCc2cccnc2)c(OC)c1	4.71
